# Data reported in paper PMC4336329 (PLoS ONE, 2015).
# Among all 310,000 compounds or so, about 14,000 (4.5%) showed an effect of 50% or more. The effect is printed as a negative number. This is one part of the list.
# Target: human ether-à-go-go-related gene (hERG) potassium channel (human, UniProt Q12809)
# Assay: primary screen, population patch clamp on CHO cells stably expressing hERG
# 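Note: peak tail current of the secondary pulse compared with the same well before compound.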
# Chain of human ether-à-go-go-related gene (hERG) potassium channel (Q12809 whole entry, looked up): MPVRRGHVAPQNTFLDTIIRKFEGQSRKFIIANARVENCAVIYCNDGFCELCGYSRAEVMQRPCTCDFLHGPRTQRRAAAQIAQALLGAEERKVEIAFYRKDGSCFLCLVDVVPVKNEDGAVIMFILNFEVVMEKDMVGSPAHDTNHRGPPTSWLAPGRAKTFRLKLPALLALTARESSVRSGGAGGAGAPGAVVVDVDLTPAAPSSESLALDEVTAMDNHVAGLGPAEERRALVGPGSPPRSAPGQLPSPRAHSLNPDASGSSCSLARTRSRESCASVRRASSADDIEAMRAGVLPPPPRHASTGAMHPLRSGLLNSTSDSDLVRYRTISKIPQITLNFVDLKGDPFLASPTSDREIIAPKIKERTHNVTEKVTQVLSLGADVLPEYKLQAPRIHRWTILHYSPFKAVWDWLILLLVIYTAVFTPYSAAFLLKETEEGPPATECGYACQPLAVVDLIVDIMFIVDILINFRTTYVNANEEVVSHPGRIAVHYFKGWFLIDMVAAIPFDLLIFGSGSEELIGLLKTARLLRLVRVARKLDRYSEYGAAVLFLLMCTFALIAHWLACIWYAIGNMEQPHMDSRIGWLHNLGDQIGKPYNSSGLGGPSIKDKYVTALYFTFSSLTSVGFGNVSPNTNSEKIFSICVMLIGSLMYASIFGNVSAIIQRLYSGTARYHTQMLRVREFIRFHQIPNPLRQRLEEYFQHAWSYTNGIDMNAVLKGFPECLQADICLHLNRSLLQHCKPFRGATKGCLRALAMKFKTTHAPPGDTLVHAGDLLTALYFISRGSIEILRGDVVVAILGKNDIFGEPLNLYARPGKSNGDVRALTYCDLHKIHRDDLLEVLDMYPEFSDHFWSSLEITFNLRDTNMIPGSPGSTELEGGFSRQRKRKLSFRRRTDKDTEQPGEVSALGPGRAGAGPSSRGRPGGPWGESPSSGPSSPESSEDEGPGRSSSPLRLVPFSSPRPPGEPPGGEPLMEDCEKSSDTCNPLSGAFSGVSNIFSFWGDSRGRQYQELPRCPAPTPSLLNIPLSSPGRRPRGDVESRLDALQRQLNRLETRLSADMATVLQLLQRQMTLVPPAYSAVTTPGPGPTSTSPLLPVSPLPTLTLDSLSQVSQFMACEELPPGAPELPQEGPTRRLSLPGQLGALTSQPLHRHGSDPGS
row,Structure (SMILES),"hERG current change (%, negative = inhibition) at 10uM [%]"
1,COCCNc1nc2c(S(=O)(=O)c3cc(C)ccc3C)nnn2c2ccccc12,19.1
2,COCCNS(=O)(=O)c1ccc2c(c1)n(C)c(=O)n2C,-4.37
3,CS(=O)(=O)N(CC(=O)N1CCc2ccccc2C1)c1ccc(Br)cc1,-30
4,O=C(NCCCn1ccnc1)c1cc(-c2cccnc2)nc2ccc(Br)cc12,-45.1
5,O=C(CS(=O)(=O)c1ccccc1)Nc1nc(-c2ccc(F)cc2)cs1,16.6
6,C=CCOCCN(CC)CC,-21.3
7,Cc1cnc(NC(=O)Nc2ccc(OCc3ccccc3)cc2)c(Br)c1,19.7
8,O=C(N/N=C/c1ccccn1)c1[nH]c2ccc([N+](=O)[O-])cc2c1-c1ccccc1,54.2
9,O=C(Nc1ccnn1C1CCN(Cc2ccccc2OC(F)F)CC1)c1cccc(F)c1,-52.4
10,CCCCCn1c(CN2CCN(c3cccc(Cl)c3)CC2)nc2c1c(=O)[nH]c(=O)n2C,-63.3
11,CC1CCCCN1CCCNC(=O)CN1C(=O)c2cccnc2Oc2ccccc21 (stereo not drawn),18.5
12,O=C(NC1C=CS(=O)(=O)C1)c1ccccc1 (stereo not drawn),23.1
13,Cc1ccc(OCC(=O)Nc2cccc(S(=O)(=O)N3CCCCC3)c2)c([N+](=O)[O-])n1,-7.51
14,COc1ccc(-c2ccccc2)cc1NCc1ccccc1C,10.1
15,O=[N+]([O-])c1ccc(NCCCN2CCOCC2)c([N+](=O)[O-])c1,-45.7
16,CC1=NNC(=O)C1CC(=O)N/N=C(/C)c1cccc([N+](=O)[O-])c1 (stereo not drawn),-39.2
17,C=CCNC(=S)Nc1ccc(F)cc1F,18.2
18,CCCCCn1cnc2c(sc3nc4c(cc32)CSC(C)(C)C4)c1=O,-14.5
19,O=C(NCc1ccccn1)c1ccc(Cn2cc(C(F)(F)F)ccc2=O)cc1,14.6
20,O=C(N/N=C/c1ccc(COc2ccc(Br)cc2)o1)c1ccco1,2.73
21,COc1ccccc1NC(=O)c1ccc2c(c1)C(=O)N(c1ccccc1OC)C2=O,5.55
22,COc1ccc(NC(=O)CSc2nc(O)cc(=O)n2-c2ccc(OC)cc2)cc1,11.7
23,O=C(NCCN1CCOCC1)c1ccc(CS(=O)(=O)Cc2ccccc2F)o1,-1.63

row,Structure (SMILES),"hERG current change (%, negative = inhibition) at 10uM [%]"
1,O=C(CSc1n[nH]c(-c2cccnc2)n1)Nc1cccc(Cl)c1,0.151
2,O=C(c1c(F)cccc1F)N1CCN=C1SCc1ccccc1,-3.14
3,Cc1ccc(S(=O)(=O)Nc2ccc3c(c2)nc(C)n3C)cc1,-3.73
4,COc1cc(S(=O)(=O)Nc2ccc(C(=O)NCC(=O)O)cc2)ccc1NC(C)=O,14.1
5,COCCCn1c(SCC(=O)OC2CCCCC2)nnc1-c1cccs1,-34.4
6,COc1ccc2oc(=O)c(C(=O)NC(C)c3ccccc3)cc2c1 (stereo not drawn),-20.1
7,COc1ccc(C(=O)NNC(=O)C(=O)N2CCCCC2)cc1OC,59.5
8,Cc1cccc(C)c1OCc1cc(C(=O)NCC2CCCCC2)no1,21.3
9,CCOc1ccc2oc(=O)cc(CN3CCOCC3)c2c1,-1.8
10,CCc1cccc2c(C(=O)CN3C(=O)NC(C)(c4cccc5ccccc45)C3=O)c[nH]c12 (stereo not drawn),37.8
11,O=C(NC1CCCN(Cc2ccc(Cl)cc2)C1)c1ccnc(Cl)c1 (stereo not drawn),-38.6
12,N#Cc1nc(-c2ccccc2Cl)oc1N1CCOCC1,-4.51
13,CCCCOc1ccccc1N,21.8
14,Cc1cccc(C)c1NC(=O)c1cc(S(=O)(=O)N2CCc3ccccc32)cn1C,-1.49
15,COc1ccc(Cl)cc1NC(=O)CSc1ncnc2c1oc1ccccc12,22.9
16,Cc1c(C(=O)NCCc2ccccc2)oc2ccc(S(=O)(=O)N3CCOCC3)cc12,-19.1
17,COCC(C)NC(C(=O)Nc1ccc(C)c(Cl)c1)c1ccccc1 (stereo not drawn),-31.3
18,COc1ccccc1NC(C)C(=O)N/N=C/c1cccs1 (stereo not drawn),8.58
19,COc1ccc(NS(=O)(=O)c2ccc(NC(=O)c3ccccn3)cc2)cc1,6.27
20,CN1N=C(C(F)(F)F)CC1=O,-1.21
21,O=C(Cn1cnc(Cl)c1Cl)c1ccccc1,11.6
22,CC(C)c1ccccc1NCC(=O)N1CCN(Cc2ccccc2)CC1.Cl,-8.94
23,COCCCNCCCOc1ccc(Cl)cc1Br,-39.2

row,Structure (SMILES),"hERG current change (%, negative = inhibition) at 10uM [%]"
1,CCCN1CCC(N2CCN(c3ccc([N+](=O)[O-])cc3)CC2)CC1,-74.3
2,O=C(c1csc2ccccc12)n1cccn1,27.3
3,O=C(Nc1ccc(N2CCOCC2)cc1)c1cccc(S(=O)(=O)N2CCC(Cc3ccccc3)CC2)c1,2.84
4,O=C(NCCSCc1c(F)cccc1Cl)c1ccco1,-27.5
5,CCN(CC)C(=O)COc1ccc(/C=C(\C#N)S(=O)(=O)c2ccccc2)cc1OC,-21
6,CC(CCOS(N)(=O)=O)c1ccccc1 (stereo not drawn),8.14
7,O=C(NC(=S)NCCCN1CCOCC1)c1ccco1,-4.11
8,COc1ccc(NC(=S)NNc2ccc(S(=O)(=O)Nc3ccccc3C(=O)O)cc2[N+](=O)[O-])cc1,13.7
9,COc1cccc(-c2cc3nc(-c4ccccc4)cc(=O)n3[nH]2)c1,-1.31
10,CCCCC(=O)Nc1sc2c(c1C(=O)OCC)CCC(C=O)=C2Cl,10.7
11,O=C(Nc1ccc(Cl)c(Cl)c1)N1CCCCCC1,2.82
12,S=C(Nc1ccccc1)N(Cc1ccccc1)Cc1ccncc1,-46.6
13,O=C(NC1CCCCCC1)c1c(O)nc2sccn2c1=O,-22.8
14,COC(=O)C(C#N)C(c1cccnc1)c1c(C)[nH][nH]c1=O (stereo not drawn),11.1
15,Cc1cc(=O)[nH]c(SCC(=O)Nc2cccc(C(F)(F)F)c2)n1,-7.63
16,CCOc1ccc2[nH]cc(-c3csc(N)n3)c2c1,23.8
17,O=C(NCc1cccs1)C1CCCN1C(=O)Nc1ccc(Cl)cc1 (stereo not drawn),33.9
18,COc1cccc(NC(=O)CN2C(=O)NC3(CCCC3)C2=O)c1,12.3
19,O=C(Nc1ccc(/C=C/c2nc3ccccc3o2)cc1)c1c(F)cccc1F,1.43
20,CCN(CC)CCCNC(=O)CC1Sc2ccccc2NC1=O (stereo not drawn),-4.33
21,CC(NC(=O)c1sc2ccccc2c1Cl)C1CCCO1 (stereo not drawn),-16.4
22,C=CCSc1nsc(NC(=O)Nc2cccc(C(C)=O)c2)n1,10.9
23,CN(Cc1ccsc1)C(=O)CCc1nnc(Cc2c[nH]c3ccccc23)o1,0.146

row,Structure (SMILES),"hERG current change (%, negative = inhibition) at 10uM [%]"
1,O=c1[nH]c(=O)n(C2CCCCC2)c(O)c1/C=N/N1CCCCC1c1cccnc1 (stereo not drawn),-13.6
2,CC(=O)Oc1ccc(C2=NN(c3ccccc3)C(c3ccccc3)C2)cc1 (stereo not drawn),15.9
3,Cc1ccc(C(=O)CC(Nc2ccc(F)cc2)c2ccccc2)cc1 (stereo not drawn),1.54
4,O=c1nc2n(c3ccc([N+](=O)[O-])cc13)CCCCC2,-15.4
5,CSCc1nc2sc(C(=O)Nc3nc(C)cs3)c(C)c2c(=O)[nH]1,-7.48
6,COCCOC(=O)C1=C(C)NC2=C(C(=O)CC(C)(C)C2)C1c1ccc2c(c1)OCO2 (stereo not drawn),-11.8
7,Cc1cc(N)ccc1NC(=O)c1ccccc1,12.4
8,COc1ccc(NC(=O)c2nc[nH]c2C(=O)Nc2ccccc2C)cc1,5.48
9,CC(=O)Nc1ccc(NC(=O)COC(=O)c2ccccc2C(=O)c2ccccc2)cc1,-12.8
10,O=C(O)Cn1c(=O)n(Cc2ccccc2)c2ccccc21,23.4
11,O=C(CCN=C1NS(=O)(=O)c2ccccc21)OCC(=O)c1ccc(F)c(F)c1,11
12,COc1ccc(Nc2nc(NCc3ccco3)nc(N/N=C/c3ccccc3Cl)n2)cc1,-10.6
13,CC(C)c1ccccc1NC(=O)C1C2C=CC(C2)C1C(=O)O (stereo not drawn),9.85
14,O=S(=O)(c1cccc(C(F)(F)F)c1)N1CCN(C(=S)NCc2ccco2)CC1,-5.8
15,O=C(NCc1ccc(F)cc1)c1cc(-c2ccco2)on1,9.8
16,CCOC(=O)C1CCCN(C2CC(=O)N(c3cccc(C)c3)C2=O)C1 (stereo not drawn),-8.58
17,CCN(CC)Cc1c(O)ccc2c(=O)c(Oc3ccccc3OC)coc12,8.08
18,CCOC(=O)C1(Cc2ccc(Cl)cc2)CCN(Cc2cnc(N)nc2)CC1,-74.7
19,COC(=O)CN1C(=O)[C@H]2[C@@H](c3ccc(C)o3)N3C(=O)CN(Cc4ccccn4)C(=O)[C@@]3(Cc3ccccc3)[C@H]2C1=O,21.5
20,Oc1ccc(NC(=S)Nc2ccc(F)cc2)cc1,3.14
21,CCn1c(SCC(=O)NC2CC2)nnc1-c1ccc(F)cc1,8.99
